Source: PMC9976968
No constants are given. Whether binding was seen depends on the method and setting. In cells and extracts the contact can be indirect. Some binding calls cover weakened binding; strength is not graded here. Where a sequence is shown, tags or fusion partners need not be part of it.

Chains of the proteins cited; added tags and fusions are not shown.
UniProt Q7TPR4: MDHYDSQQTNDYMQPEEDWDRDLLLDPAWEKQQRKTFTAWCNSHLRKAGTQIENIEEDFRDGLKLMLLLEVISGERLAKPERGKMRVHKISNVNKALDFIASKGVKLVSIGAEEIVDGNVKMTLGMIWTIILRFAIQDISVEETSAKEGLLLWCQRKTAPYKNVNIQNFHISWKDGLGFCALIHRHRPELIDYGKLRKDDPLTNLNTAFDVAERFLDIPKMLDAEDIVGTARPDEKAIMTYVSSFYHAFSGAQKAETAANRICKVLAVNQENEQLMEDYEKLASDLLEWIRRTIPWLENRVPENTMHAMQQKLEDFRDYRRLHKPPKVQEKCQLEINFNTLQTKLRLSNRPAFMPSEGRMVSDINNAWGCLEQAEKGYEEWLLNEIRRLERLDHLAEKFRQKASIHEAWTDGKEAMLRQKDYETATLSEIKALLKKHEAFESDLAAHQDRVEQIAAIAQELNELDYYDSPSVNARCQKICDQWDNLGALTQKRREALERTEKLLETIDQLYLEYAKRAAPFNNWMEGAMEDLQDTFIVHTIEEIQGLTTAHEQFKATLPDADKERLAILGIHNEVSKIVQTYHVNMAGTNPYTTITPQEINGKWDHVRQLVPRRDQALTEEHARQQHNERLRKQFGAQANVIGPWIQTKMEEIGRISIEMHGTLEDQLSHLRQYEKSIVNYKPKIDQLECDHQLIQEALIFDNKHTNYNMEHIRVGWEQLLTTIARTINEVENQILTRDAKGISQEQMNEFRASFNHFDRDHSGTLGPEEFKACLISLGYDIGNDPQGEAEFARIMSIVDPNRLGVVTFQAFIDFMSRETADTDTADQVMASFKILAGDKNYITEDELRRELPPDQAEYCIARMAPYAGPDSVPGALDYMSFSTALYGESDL
UniProt Q9D9L5: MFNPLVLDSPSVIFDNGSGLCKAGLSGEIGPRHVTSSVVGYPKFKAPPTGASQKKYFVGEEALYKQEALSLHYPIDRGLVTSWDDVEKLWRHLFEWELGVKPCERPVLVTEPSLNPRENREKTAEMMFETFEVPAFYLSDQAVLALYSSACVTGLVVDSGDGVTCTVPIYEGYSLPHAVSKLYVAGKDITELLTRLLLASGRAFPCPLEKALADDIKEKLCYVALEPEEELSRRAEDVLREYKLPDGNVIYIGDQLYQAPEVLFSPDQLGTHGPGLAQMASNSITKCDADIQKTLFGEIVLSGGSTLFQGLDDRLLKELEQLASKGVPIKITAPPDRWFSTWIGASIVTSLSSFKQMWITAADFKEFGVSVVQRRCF
UniProt Q64331: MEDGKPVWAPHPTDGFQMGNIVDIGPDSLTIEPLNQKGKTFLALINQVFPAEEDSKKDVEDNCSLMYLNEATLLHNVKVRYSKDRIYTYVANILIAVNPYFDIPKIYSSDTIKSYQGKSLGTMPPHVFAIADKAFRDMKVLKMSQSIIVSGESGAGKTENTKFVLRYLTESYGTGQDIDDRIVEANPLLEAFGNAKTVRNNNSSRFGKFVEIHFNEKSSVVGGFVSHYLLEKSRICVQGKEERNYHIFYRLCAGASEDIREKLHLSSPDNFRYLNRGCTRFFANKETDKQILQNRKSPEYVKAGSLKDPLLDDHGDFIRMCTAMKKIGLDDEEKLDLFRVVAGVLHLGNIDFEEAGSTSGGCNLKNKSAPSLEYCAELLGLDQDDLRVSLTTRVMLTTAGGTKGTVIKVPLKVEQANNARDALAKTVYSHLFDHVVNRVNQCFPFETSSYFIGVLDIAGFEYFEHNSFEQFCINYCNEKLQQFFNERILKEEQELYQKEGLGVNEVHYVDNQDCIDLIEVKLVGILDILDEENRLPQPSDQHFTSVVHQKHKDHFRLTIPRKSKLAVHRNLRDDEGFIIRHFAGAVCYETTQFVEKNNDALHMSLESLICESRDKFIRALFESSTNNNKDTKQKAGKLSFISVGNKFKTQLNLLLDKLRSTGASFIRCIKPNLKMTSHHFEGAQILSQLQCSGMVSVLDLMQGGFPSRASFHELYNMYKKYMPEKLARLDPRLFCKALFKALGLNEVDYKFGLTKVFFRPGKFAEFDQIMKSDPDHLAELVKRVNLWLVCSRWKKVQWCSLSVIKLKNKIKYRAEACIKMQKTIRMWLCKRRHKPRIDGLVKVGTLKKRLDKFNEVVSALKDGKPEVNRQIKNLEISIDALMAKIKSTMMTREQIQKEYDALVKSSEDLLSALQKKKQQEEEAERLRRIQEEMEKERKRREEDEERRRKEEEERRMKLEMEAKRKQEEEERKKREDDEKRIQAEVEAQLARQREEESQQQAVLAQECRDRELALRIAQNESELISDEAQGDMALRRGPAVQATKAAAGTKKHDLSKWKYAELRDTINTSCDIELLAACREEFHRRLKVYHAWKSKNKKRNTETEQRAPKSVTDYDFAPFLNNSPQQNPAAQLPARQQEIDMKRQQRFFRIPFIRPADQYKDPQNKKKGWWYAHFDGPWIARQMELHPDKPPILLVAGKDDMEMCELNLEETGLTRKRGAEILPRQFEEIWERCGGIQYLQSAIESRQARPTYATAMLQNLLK

T1: YFP-6His-ACTL7A fusion protein (human actin-like 7A) (human) (UniProt Q9Y615)
T1 sequence: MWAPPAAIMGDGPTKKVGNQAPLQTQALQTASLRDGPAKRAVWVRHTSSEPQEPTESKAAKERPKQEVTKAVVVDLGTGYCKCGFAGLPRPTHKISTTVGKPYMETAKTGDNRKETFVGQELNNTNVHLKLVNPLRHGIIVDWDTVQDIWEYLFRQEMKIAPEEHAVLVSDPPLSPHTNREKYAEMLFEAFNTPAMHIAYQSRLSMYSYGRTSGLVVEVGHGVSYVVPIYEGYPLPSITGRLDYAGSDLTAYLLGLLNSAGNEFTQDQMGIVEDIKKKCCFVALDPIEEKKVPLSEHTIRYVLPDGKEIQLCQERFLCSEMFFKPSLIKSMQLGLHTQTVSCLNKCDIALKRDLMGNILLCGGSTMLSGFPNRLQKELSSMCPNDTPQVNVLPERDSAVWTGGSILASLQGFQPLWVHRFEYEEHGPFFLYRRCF

B1: profilin 4 (PFN4) (protein, UniProt Q9D6I3 1-129)
chain: MSHLQNLLLDTLLGTKHVDSAALIKLQEKTLCVTSPGFSVMPSDVRTLLNGFAKNPLLTRREGLYFKEKDYKCVRADDYSLYAKNENTGVVVVKTNMYLVVATYTAGMYPSVCVEATEKLGEYLRKKGN
B2: SPACA1 (protein, UniProt Q9DA48 29-305)
chain: SNVTSSGGGVQEPAVAREGESESESESEEEAENEGEVPESETTAEADAEEEVQNRTIVKEVEFGMCTVTCGVGIREVILTNGCPGGESKCVVRVEECRGPVDCGWGKPISENLDSARLSCVHISPENRFKYVWKLLKPDQQPVILTNDSAVLEITREIRPLAFECDTLDNNEMVASVKFTVYTTNELQMRRSSRPDTDAVLVFVLTIGVIICIFVIFVLIFIIINWAAVKSFWGSKTSATEIQSELSSMRYKDSTSLDQSPTDIPVHEDDALSEWNE

Biological target: T1, YFP-6His-ACTL7A fusion protein (human actin-like 7A) (human)
Assay: co-IP; soluble fraction of YFP-6His-ACTL7A-transfected HEK293F lysate coincubated 1 h at room temperature with soluble fraction of murine testis lysate; agarose-conjugated GFP nanobody beads overnight at 4°C; low salt buffer (10 mM Tris-HCl, 205 µM CaCl2, 100 mM KCl, pH 7.8); eluted with 100 mM glycine pH 2.8; western blot

| Molecule | binding |
| --- | --- |
| α-actinin (ACTN1) (from UniProt Q7TPR4 1-892) | binds weakly |
| ACTRT2 (from UniProt Q9D9L5 1-377) | no binding |
| myosin 6 (MYO6) (from UniProt Q64331 1-1262) | binds |
| B1 | binds |
| B2 | no binding |
